In the antibiotic and cytotoxicity screens of Wong et al. (2023) one finds cytotoxicity call and growth inhibition call data, which are given here for 30 compounds.

In one assay the test system is HSkMC. The assay is described as follows: cytotoxicity call (relative viability < 0.9). To be noted: 10 µM.
For a further assay, the system named is HepG2. The assay is described as follows: cytotoxicity call (relative viability < 0.9). The following applies: 10 µM.
Another assay concerns S. aureus RN4220. The assay is described as follows: growth inhibition call (relative growth <= 0.2). The following applies: 50 µM.

The list shows a part of the results.

Turning to `C[C@H]1CN([C@@H](C)CO)C(=O)c2cc(C#CCN(C)C)cnc2O[C@@H]1CN(C)C(=O)Nc1ccccc1F`, the cytotoxicity call in the assay on HSkMC and in the assay on HepG2 was “inactive” throughout. The growth inhibition call with S. aureus RN4220 was “inactive”.

On to `O=C(O)Cn1nnnc1-c1ccc(F)cc1`, for which the cytotoxicity call in the assay with HSkMC and with HepG2 was “inactive” in each case. In addition, in the assay with S. aureus RN4220, the growth inhibition call is “inactive”.

As to `C[C@H]1CN([C@@H](C)CO)C(=O)c2cc(NC(=O)Nc3ccc(C(F)(F)F)cc3)ccc2O[C@H]1CN(C)Cc1ccc(C(=O)O)cc1`, the cytotoxicity call in the assay with HSkMC and with HepG2 was “inactive” throughout. The growth inhibition call in the assay with S. aureus RN4220 was “inactive”.

For the compound `C[C@H]1CN([C@@H](C)CO)C(=O)Cc2cc(NS(=O)(=O)c3ccc(F)cc3)ccc2O[C@H]1CN(C)Cc1ccc(Oc2ccccc2)cc1`, the cytotoxicity call in the assay with HSkMC and with HepG2 was “active” throughout. The growth inhibition call with S. aureus RN4220 is “inactive”.

Regarding `Cc1ccc(S(=O)(=O)N(C)C[C@H]2Oc3ncc(Br)cc3C(=O)N([C@H](C)CO)C[C@@H]2C)cc1`, the cytotoxicity call in the assay with HSkMC and in the assay with HepG2 was “inactive” throughout. Besides, in the assay with S. aureus RN4220, the growth inhibition call was “inactive”.

For `C[C@H](CO)N1C[C@H](C)[C@H](CN(C)S(=O)(=O)c2cn(C)cn2)Oc2ncc(C#CC(C)(C)O)cc2C1=O`, the cytotoxicity call in the assay with HSkMC and with HepG2 was “inactive” in each case. The growth inhibition call with S. aureus RN4220 was “inactive”.

As to `Cc1ccc(S(=O)(=O)Nc2cccc3c2O[C@H](CN(C)S(=O)(=O)c2ccc(F)cc2)[C@@H](C)CN([C@H](C)CO)C3=O)cc1`, the cytotoxicity call in the assay with HSkMC and in the assay with HepG2 was “inactive” in each case. The growth inhibition call with S. aureus RN4220 is “inactive”.

`CO[C@H]1CN(C)C(=O)c2ccc(NC(=O)C3CCOCC3)cc2OC[C@H](C)N(Cc2cccnc2)C[C@H]1C`: the cytotoxicity call in the assay with HSkMC and in the assay with HepG2 was “inactive” in each case. Further, the growth inhibition call with S. aureus RN4220 is “inactive”.

Consider `CC(C)NC(=O)Nc1ccc2c(c1)CC(=O)N([C@@H](C)CO)C[C@H](C)[C@H](CN(C)Cc1ccc(-c3ccccc3)cc1)O2`, for which the cytotoxicity call in the assay with HSkMC and in the assay with HepG2 was “inactive” each time. Besides, the growth inhibition call with S. aureus RN4220 was “inactive”.

Turning to `O=C(O)c1cc(=O)c2ccccc2o1`, the cytotoxicity call with HSkMC and with HepG2 was “inactive” in each case. Further, the growth inhibition call with S. aureus RN4220 was “inactive”.

`COc1ccc(CN(C)C[C@H]2OCCCC[C@H](C)Oc3ccc(NC(=O)Nc4cccc5ccccc45)cc3C(=O)N([C@@H](C)CO)C[C@@H]2C)cc1`: the cytotoxicity call in the assay with HSkMC and with HepG2 was “inactive” throughout. In the assay on S. aureus RN4220, the growth inhibition call was “inactive”.

`NC(=O)CCC(N)C(=O)O` (stereo not given): in the assay on HSkMC, the cytotoxicity call is “inactive”. Moreover, in the assay with HepG2, the cytotoxicity call was “active”. Moreover, the growth inhibition call with S. aureus RN4220 was “inactive”.

Consider `Cc1cc(C(=O)O)n(C)n1`, for which the cytotoxicity call in the assay on HSkMC and with HepG2 was “inactive” each time. Further, the growth inhibition call in the assay on S. aureus RN4220 was “inactive”.

In the case of `CCc1nc2ccc(C(=O)NCc3ccc4c(c3)OCO4)cn2c1N(CC)Cc1cccc(Br)c1`, the cytotoxicity call with HSkMC and with HepG2 was “inactive” in each case. In addition, the growth inhibition call with S. aureus RN4220 is “inactive”.

For the compound `COc1cccc(NC(=O)N2C[C@@H](O)COC[C@@H]3O[C@@H](CC(=O)NC4Cc5ccccc5C4)CC[C@H]32)c1`, the cytotoxicity call in the assay on HSkMC and in the assay with HepG2 was “inactive” each time. Further, the growth inhibition call with S. aureus RN4220 was “inactive”.

`C[C@@H]1CN([C@@H](C)CO)C(=O)Cc2cc(NC(=O)CCCN(C)C)ccc2O[C@@H]1CN(C)Cc1ccc(Oc2ccccc2)cc1`: the cytotoxicity call in the assay with HSkMC was “inactive”. The cytotoxicity call with HepG2 was “active”. The growth inhibition call with S. aureus RN4220 was “inactive”.

On to `C[C@H]1CN([C@@H](C)CO)C(=O)Cc2cc(NS(=O)(=O)c3cn(C)cn3)ccc2O[C@@H]1CN(C)C(=O)Nc1ccc2c(c1)OCO2`, for which the cytotoxicity call in the assay on HSkMC and in the assay with HepG2 was “inactive” in each case. In addition, in the assay with S. aureus RN4220, the growth inhibition call was “inactive”.

Turning to `C[C@H](CO)N1C[C@H](C)[C@@H](CN(C)C(=O)NC2CCCCC2)Oc2cc(-c3cccnc3)ccc2S1(=O)=O`, the cytotoxicity call with HSkMC and in the assay on HepG2 was “inactive” each time. For the same compound, in the assay on S. aureus RN4220, the growth inhibition call was “inactive”.

For `Cn1c(=O)n2n(c1=O)[C@H](C1CC1)C=C1CN3[C@@H]([C@H](Cc4ccccc4)OC(=O)[C@@H]3Cc3ccc(-n4cc(C(=O)NO)nn4)cc3)[C@@H]12`, the cytotoxicity call with HSkMC and in the assay with HepG2 was “inactive” throughout. Further, the growth inhibition call in the assay on S. aureus RN4220 was “inactive”.

For the compound `Cc1cc(C)c(/N=c2\scc(C)n2Cc2ccccc2)c(C)c1`, the cytotoxicity call in the assay with HSkMC and in the assay with HepG2 was “inactive” each time. Further, the growth inhibition call in the assay on S. aureus RN4220 is “inactive”.

As for `O=C(C[C@@H]1CC[C@H]2[C@@H](COC[C@@H](O)CN2C(=O)Nc2cccc(Cl)c2)O1)NCCCN1CCOCC1`, the cytotoxicity call with HSkMC and with HepG2 was “inactive” in each case. Also, the growth inhibition call with S. aureus RN4220 was “active”.

With `c1ccc(Cc2nn[nH]n2)cc1`, the cytotoxicity call in the assay with HSkMC and in the assay on HepG2 was “inactive” throughout. For the same compound, the growth inhibition call in the assay on S. aureus RN4220 was “inactive”.

In the case of `COc1ccc2c3c(n(c2c1)C)[C@@H](CO)N(C[C@]13CCN(CC1)C(=O)c1ccncc1)C(=O)c1cnccn1`, the cytotoxicity call in the assay on HSkMC and in the assay with HepG2 was “inactive” each time. In addition, the growth inhibition call in the assay on S. aureus RN4220 was “inactive”.

In the case of `C[C@@H]1CN([C@@H](C)CO)C(=O)c2cc(NC(=O)Nc3ccc(C(F)(F)F)cc3)ccc2O[C@@H]1CN(C)C(=O)Nc1ccc2c(c1)OCO2`, the cytotoxicity call in the assay on HSkMC and with HepG2 was “active” in each case. Moreover, the growth inhibition call in the assay on S. aureus RN4220 is “inactive”.

`O=C1C=CC(O)(/C=C/C(=O)O[C@@H]2[C@@H](O)[C@H](Oc3ccc(O)cc3)O[C@H](CO)[C@H]2O)C=C1`: the cytotoxicity call with HSkMC and in the assay on HepG2 was “inactive” each time. Further, the growth inhibition call with S. aureus RN4220 was “inactive”.

Consider `C[C@H]1CN([C@@H](C)CO)C(=O)c2cc(C#Cc3ccc(F)cc3)cnc2O[C@@H]1CN(C)Cc1ccccn1`, for which the cytotoxicity call with HSkMC and in the assay on HepG2 was “inactive” throughout. Also, the growth inhibition call in the assay on S. aureus RN4220 is “inactive”.

As to `C[C@@H]1CCCCO[C@@H](CN(C)C(=O)C2CCCCC2)[C@@H](C)CN([C@@H](C)CO)C(=O)c2cc(NC(=O)Nc3cccc4ccccc34)ccc2O1`, the cytotoxicity call with HSkMC and in the assay on HepG2 was “inactive” throughout. For the same compound, the growth inhibition call in the assay on S. aureus RN4220 was “inactive”.

As to `C[C@@H]1CN([C@@H](C)CO)C(=O)c2cc(NC(=O)Nc3ccc4c(c3)OCO4)ccc2O[C@@H](C)CCCCO[C@@H]1CN(C)S(=O)(=O)c1ccc(Cl)cc1`, the cytotoxicity call with HSkMC and in the assay with HepG2 was “inactive” in each case. Moreover, the growth inhibition call in the assay on S. aureus RN4220 is “inactive”.

On to `CS(=O)(=O)CCCCN=C=S`, for which the cytotoxicity call in the assay on HSkMC (human skeletal muscle cells) and in the assay on HepG2 was “inactive” in each case. In addition, the growth inhibition call in the assay on S. aureus RN4220 was “inactive”.

For `C[C@@H]1CCCCO[C@H](CN(C)S(=O)(=O)c2cccs2)[C@@H](C)CN([C@H](C)CO)C(=O)c2cc(NC(=O)C3CCCCC3)ccc2O1`, the cytotoxicity call with HSkMC and in the assay on HepG2 was “inactive” throughout. In the assay with S. aureus RN4220, the growth inhibition call is “inactive”.
